Reference: patent US7592316B2, “Peptides as NS3-serine protease inhibitors of hepatitis C virus” (Schering Corporation, priority 2000, dated 2009)

The compounds below were run against HCV NS3/NS4A protease (strain 1a) (Hepatitis C virus genotype 1a, UniProt P27958) (assay: biochemical). Conditions: Compounds prepared by Solid Phase Synthesis, Table 3; read-out: Ki* CLASS.

Q: `CCCC(NC(=O)[C@@H]1C[C@@H](OC(C)(C)C)CN1C(=O)[C@@H](NC(=O)c1c(F)c(F)c(C(=O)O)c(F)c1F)C1CCCCC1)C(=O)C(=O)NCC(=O)NC(C(N)=O)c1cccc(Cl)c1` (stereo partly drawn) (X73-[Chg][Hyp](tBu)[X2]G[ξPhg(3-Cl)]-NH2) was tested. Which Ki did it give?
A: The Ki was 0.101 to 1 µM.

Q: `CC(C)CC(NC(=O)[C@@H]1C[C@@H](OC(C)(C)C)CN1C(=O)[C@@H](NC(=O)c1c(F)c(F)c(C(=O)O)c(F)c1F)C1CCCCC1)C(=O)C(=O)NCC(=O)N[C@H](C(N)=O)c1ccccc1` (stereo partly drawn) (X73-[Chg][Hyp](tBu)[ξLeu(ψCOCO)]G[Phg]-NH2) was tested. Which Ki did it give?
A: The Ki was over 1 µM.

Q: `CCCCC(NC(=O)C(CCCC)NC(=O)CNC(=O)C(=O)C(CCC)NC(=O)[C@@H]1C[C@@H](OCc2ccccc2)CN1C(=O)C(NC(=O)[C@H]1CCCC[C@@H]1C(=O)c1ccccc1)C1CCCCC1)C(N)=O` (stereo partly drawn) (X74-[ξChg][Hyp](Bn)[X2]G[ξNle][ξNle]-NH2) was tested. Which Ki did it give?
A: Its Ki is 0.101 to 1 µM.

Q: How did the Ki turn out when `CCCCC(NC(=O)CNC(=O)C(=O)C(CCC)NC(=O)[C@@H]1C[C@@H](OCc2ccccc2)CN1C(=O)C(NC(=O)C(Cc1ccccc1)C(=O)O)C1CCCCC1)C(N)=O` (stereo partly drawn) (X77-[ξChg][Hyp](Bn)[X2]G[ξNle]-NH2) was run?
A: Its Ki is over 1 µM.

Q: `CCCCC(NC(=O)CNC(=O)C(=O)C(CCC)NC(=O)[C@@H]1C[C@@H](OCC(=O)OC(C)(C)C)CN1C(=O)C(NC(=O)Cc1cccc(F)c1)C1CCCCC1)C(N)=O` (stereo partly drawn) (X78-[ξChg][Hyp](CH2CO2tBu)[X2]G[ξNle]-NH2) was tested. Which Ki did it give?
A: Its Ki is over 1 µM.

Q: `CCCCC(NC(=O)CNC(=O)C(=O)C(CCC)NC(=O)[C@@H]1C[C@@H](OCc2ccccc2)CN1C(=O)C(NC(=O)C(C)Cc1ccccc1)C1CCCCC1)C(N)=O` (stereo partly drawn) (X79-[ξChg][Hyp](Bn)[X2]G[ξNle]-NH2) was tested. Which Ki did it give?
A: The Ki was over 1 µM.

Q: `CCCCC(NC(=O)CNC(=O)C(=O)C(CCC)NC(=O)[C@@H]1C[C@@H](OCOCCOC)CN1C(=O)C(NC(=O)C(C)Cc1ccccc1)C1CCCCC1)C(N)=O` (stereo partly drawn) (X79-[ξChg][Hyp](MEM)[X2]G[ξNle]-NH2) was tested. Which Ki did it give?
A: Its Ki is over 1 µM.

Q: With `CCCCC(NC(=O)[C@@H]1C[C@@H](OCc2ccccc2)CN1C(=O)C(NC(=O)[C@@H]1CCCC[C@@H]1C(=O)c1ccccc1)C1CCCCC1)C(=O)C(=O)NCC(=O)NC(C(N)=O)c1ccccc1` (stereo partly drawn) (X80-[ξChg][Hyp](Bn)[X4]G[ξPhg]-NH2) as the compound, how does the Ki read?
A: Its Ki is 0.101 to 1 µM.

Q: Which Ki does the source give for `CCCCC(NC(=O)C(CCCC)NC(=O)CNC(=O)C(=O)C(CCC)NC(=O)[C@@H]1C[C@@H](OCc2ccccc2)CN1C(=O)C(NC(=O)[C@H]1CCCC[C@H]1C(=O)c1ccccc1)C1CCCCC1)C(N)=O` (stereo partly drawn) (X82-[ξChg][Hyp](Bn)[X2]G[ξNle][ξNle]-NH2) here?
A: Its Ki is over 1 µM.

Q: With `CCCCC(NC(=O)CNC(=O)C(=O)C(CCC)NC(=O)[C@@H]1C[C@@H](OCC(=O)O)CN1C(=O)C(NC(=O)Cc1cc(C)cc(C)c1)C1CCCCC1)C(N)=O` (stereo partly drawn) (X85-[ξChg][Hyp](Carboxymethyl)[X2]G[ξNle]-NH2) as the compound, how does the Ki read?
A: Its Ki is over 1 µM.

Q: Which Ki does the source give for `CCCC(NC(=O)[C@@H]1C[C@@H](OCc2ccccc2)CN1C(=O)C(NC(=O)CC(C)CC(=O)O)C1CCCCC1)C(=O)C(=O)NCC(=O)NC(C(=O)O)c1ccccc1` (stereo partly drawn) (X86-[ξChg][Hyp](Bn)[X2]G[ξPhg]-OH) here?
A: The Ki was 0.001 to 0.1 µM.

Q: `CCCC(NC(=O)[C@@H]1C[C@@H](OCc2ccccc2)CN1C(=O)C(NC(=O)c1ccccc1C(=O)c1ccccc1)C1CCCCC1)C(=O)C(=O)NCC(=O)NC(C(N)=O)c1ccccc1` (stereo partly drawn) (X87-[ξChg][Hyp](Bn)[X2]G[ξPhg]-NH2) was tested. Which Ki did it give?
A: Its Ki is over 1 µM.

Q: How did the Ki turn out when `CCCCC(NC(=O)[C@@H]1C[C@@H](OCc2ccccc2)CN1C(=O)C(NC(=O)c1ccccc1C(=O)c1ccccc1)C1CCCCC1)C(=O)C(=O)NCC(=O)NC(C(N)=O)c1ccccc1` (stereo partly drawn) (X87-[ξChg][Hyp](Bn)[X4]G[ξPhg]-NH2) was run?
A: Its Ki is 0.101 to 1 µM.

Q: How did the Ki turn out when `CCCCC(NC(=O)C(CCCC)NC(=O)CNC(=O)C(=O)C(CCC)NC(=O)[C@@H]1C[C@@H](OCc2ccccc2)CN1C(=O)C(NC(=O)[C@H]1CCCC[C@@H]1C(=O)O)C1CCCCC1)C(N)=O` (stereo partly drawn) (X91-[ξChg][Hyp](Bn)[X2]G[ξNle][ξNle]-NH2) was run?
A: The Ki was 0.101 to 1 µM.

Q: With `CCCC(NC(=O)[C@@H]1C[C@@H](OCc2ccccc2)CN1C(=O)C(NC(=O)C(C)(C)C(=O)O)C1CCCCC1)C(=O)C(=O)NCC(=O)NC(C(=O)O)c1ccccc1` (stereo partly drawn) (X92-[ξChg][Hyp](Bn)[X2]G[ξPhg]-OH) as the compound, how does the Ki read?
A: The Ki was 0.101 to 1 µM.

Q: How did the Ki turn out when `CCCCC(NC(=O)CNC(=O)C(=O)C(CCC)NC(=O)[C@@H]1C[C@@H](OCC(=O)O)CN1C(=O)C(NC(=O)Cc1ccc(C(C)C)cc1)C1CCCCC1)C(N)=O` (stereo partly drawn) (X93-[ξChg][Hyp](Carboxymethyl)[X2]G[ξNle]-NH2) was run?
A: Its Ki is over 1 µM.

Q: `CCCCC(NC(=O)[C@@H]1C[C@@H](OCc2ccccc2)CN1C(=O)C(NC(=O)[C@@H]1CCCC[C@H]1C(=O)O)C1CCCCC1)C(=O)C(=O)NCC(=O)NC(C(N)=O)c1ccccc1` (stereo partly drawn) (X94-[ξChg][Hyp](Bn)[X4]G[ξPhg]-NH2) was tested. Which Ki did it give?
A: Its Ki is 0.101 to 1 µM.

Q: Which Ki does the source give for `CCCCC(NC(=O)C(CCCC)NC(=O)CNC(=O)C(=O)C(CCC)NC(=O)[C@@H]1C[C@@H](OCc2ccccc2)CN1C(=O)C(NC(=O)c1c(OCC)ccc2ccccc12)C1CCCCC1)C(N)=O` (stereo partly drawn) (X97-[ξChg][Hyp](Bn)[X2]G[ξNle][ξNle]-NH2) here?
A: Its Ki is 0.101 to 1 µM.

*1 amine or outer side, *2 acyl side, *3 side chain or, on linkers, in order; H or OH if unused. Where a SMILES comes first, the peptide text is derived from it. [ ]: non-standard residue; d: D form. The star is where a group is joined. ξ: configuration not given here. ξLeu(ψCOCO) = CC(C)CC(N[*:1])C(=O)C(=O)[*:2]; X82 = O=C(c1ccccc1)[C@@H]1CCCC[C@@H]1C(=O)*; X74 = O=C(c1ccccc1)[C@H]1CCCC[C@@H]1C(=O)*; X80 = O=C(c1ccccc1)[C@H]1CCCC[C@H]1C(=O)*; X73 = O=C(O)c1c(F)c(F)c(C(=O)*)c(F)c1F; X91 = O=C(O)[C@H]1CCCC[C@@H]1C(=O)*; X94 = O=C(O)[C@@H]1CCCC[C@H]1C(=O)*; ξPhg(3-Cl) = NC(C(=O)O)c1cccc(Cl)c1; X4 = CCCCC(N[*:1])C(=O)C(=O)[*:2]; X87 = O=C(c1ccccc1)c1ccccc1C(=O)*; Hyp = O=C(O)[C@@H]1C[C@@H](O)CN1; X2 = CCCC(N[*:1])C(=O)C(=O)[*:2]; X77 = O=C(O)C(Cc1ccccc1)C(=O)*; X97 = CCOc1ccc2ccccc2c1C(=O)*; CH2CO2tBu = CC(C)(C)OC(=O)C*; Chg = N[C@H](C(=O)O)C1CCCCC1; Phg = N[C@H](C(=O)O)c1ccccc1; X93 = CC(C)c1ccc(CC(=O)*)cc1; X85 = Cc1cc(C)cc(CC(=O)*)c1; X79 = CC(Cc1ccccc1)C(=O)*; X92 = CC(C)(C(=O)O)C(=O)*; ξChg = NC(C(=O)O)C1CCCCC1; ξPhg = NC(C(=O)O)c1ccccc1; Carboxymethyl = O=C(O)C*; X78 = O=C(Cc1cccc(F)c1)*; X86 = CC(CC(=O)O)CC(=O)*; ξNle = CCCCC(N)C(=O)O; Bn = c1ccc(C*)cc1; tBu = CC(C)(C)*; MEM = COCCOC*
